# In all, about 220,000 compounds went through this assay and about 5,700 (2.6%) were called active. The inconclusive results got no clear call from the source; some entries with a clear call stand among them for comparison. The call rests on the fitted dose curve; in most records, active means well fitted inhibition curve with a large enough effect; inconclusive means small, poorly fitted or top-dose-only effect; inactive means no such curve, though single readings can be large or run the other way. Where the call is inconclusive, the potency comes from a doubtful curve fit.
# Biological target: Lysine-specific demethylase 5B (Homo sapiens) (UniProt Q9UGL1)
# Experiment: Primary screen for KDM5B Histone Demethylases FDH-coupled qHTS; further: nearly all actives have a fitted effect of over 70% in size; on activity change, negative = inhibition: 0% is about no effect
# Conditions: FDH-coupled NADH fluorescence (FDH is formaldehyde dehydrogenase); activity change, negative = inhibition: at 57.7 µM (top of the series) unless noted
# How it was run: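 Compound dilutions met 200 nM (final) KDM5BΔAP for 10 min at room temperature before substrate addition. The substrate mix held 12.5 µM H3K4me3 with cofactors 25 µM α-ketoglutarate and 50 µM Fe²⁺. NADH signal gain over 30 min defined activity.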
# Potency means the concentration at half of the fitted maximal effect; tags describe the fitted curve by direction and shape.
# UniProt Q9UGL1, sequence (Q9UGL1 whole entry, looked up): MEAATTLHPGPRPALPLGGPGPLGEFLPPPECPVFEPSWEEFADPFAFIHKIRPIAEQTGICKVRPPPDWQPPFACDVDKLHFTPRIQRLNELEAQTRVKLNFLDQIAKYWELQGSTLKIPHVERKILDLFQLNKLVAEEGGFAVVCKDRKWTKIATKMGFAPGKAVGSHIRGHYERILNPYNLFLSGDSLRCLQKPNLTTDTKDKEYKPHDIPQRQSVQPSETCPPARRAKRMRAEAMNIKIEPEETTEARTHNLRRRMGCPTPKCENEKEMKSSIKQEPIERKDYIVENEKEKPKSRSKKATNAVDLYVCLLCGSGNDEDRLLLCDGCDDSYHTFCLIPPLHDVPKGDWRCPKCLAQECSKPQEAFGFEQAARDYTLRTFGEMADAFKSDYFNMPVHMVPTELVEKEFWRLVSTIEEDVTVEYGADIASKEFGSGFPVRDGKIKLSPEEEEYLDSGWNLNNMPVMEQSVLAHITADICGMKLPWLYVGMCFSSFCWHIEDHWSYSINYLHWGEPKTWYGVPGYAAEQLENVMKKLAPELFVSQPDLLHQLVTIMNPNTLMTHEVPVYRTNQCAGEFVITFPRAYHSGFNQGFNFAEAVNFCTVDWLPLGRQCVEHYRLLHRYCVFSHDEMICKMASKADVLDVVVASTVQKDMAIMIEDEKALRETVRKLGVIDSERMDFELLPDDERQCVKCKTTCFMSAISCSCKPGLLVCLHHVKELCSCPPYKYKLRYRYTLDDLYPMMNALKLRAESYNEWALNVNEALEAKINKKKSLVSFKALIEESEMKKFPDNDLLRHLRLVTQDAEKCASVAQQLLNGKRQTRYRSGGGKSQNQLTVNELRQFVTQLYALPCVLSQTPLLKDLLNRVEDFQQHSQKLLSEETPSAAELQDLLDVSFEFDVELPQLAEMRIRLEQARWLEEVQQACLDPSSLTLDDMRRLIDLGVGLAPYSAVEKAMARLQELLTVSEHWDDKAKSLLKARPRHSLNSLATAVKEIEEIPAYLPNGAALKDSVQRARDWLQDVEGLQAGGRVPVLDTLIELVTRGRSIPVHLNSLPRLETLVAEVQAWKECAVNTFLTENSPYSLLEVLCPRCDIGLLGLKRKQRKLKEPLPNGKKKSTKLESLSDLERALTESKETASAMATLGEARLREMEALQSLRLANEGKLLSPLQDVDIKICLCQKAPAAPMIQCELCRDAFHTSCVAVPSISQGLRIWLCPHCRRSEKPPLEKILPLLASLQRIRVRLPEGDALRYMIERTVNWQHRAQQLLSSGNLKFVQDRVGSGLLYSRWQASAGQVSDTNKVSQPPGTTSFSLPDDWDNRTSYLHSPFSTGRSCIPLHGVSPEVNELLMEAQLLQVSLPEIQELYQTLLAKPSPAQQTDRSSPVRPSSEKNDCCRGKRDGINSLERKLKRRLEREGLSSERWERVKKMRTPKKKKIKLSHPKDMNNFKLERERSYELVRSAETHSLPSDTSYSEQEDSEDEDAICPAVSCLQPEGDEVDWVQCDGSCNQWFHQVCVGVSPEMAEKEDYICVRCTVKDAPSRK
SMILES,Potency,"activity change, negative = inhibition"
Cc1cccc(CNC(=O)c2ccc(Cn3ccn4nc5c(c4c3=O)CCCC5)cc2)c1,"inconclusive: 35.5 µM [inhibitor, single point]",–
COC(=O)c1ccc(NC(=O)N2CC(Oc3cccc(-c4nc(C)no4)c3)C2)cc1,"inconclusive: 31.6 µM [inhibitor, single point]",–
Fc1ccc(-c2ccnc3ncnn23)cc1,active: 28.2 µM,–
O=C(NC1CCN(c2cc(-c3ccc(F)cc3)[nH]n2)C1)c1ccccc1Cl (centres undefined),"inconclusive: 12.6 µM [inhibitor, partial curve]",–
CCOc1ccc(S(=O)(=O)Nc2cc(C(=O)N(C)C)ccc2N2CCNCC2)cc1,inactive,–
O=C1NC(C(=O)N2CCN(c3ncccn3)CC2)CN1Cc1ccccc1 (centres undefined),"inconclusive: 25.1 µM [inhibitor, partial curve]",–
COc1ccc(CN2C[C@H]3CN(Cc4ncc[nH]4)CCN3C2=O)cc1,"inconclusive: 31.6 µM [inhibitor, single point]",–
CCc1ccc(S(=O)(=O)N2CCN(c3ccc(NCc4ccccc4)nn3)CC2)cc1,"inconclusive: 25.1 µM [inhibitor, single point]",–
CCc1noc(-c2cccn3c(CNC(=O)c4ccc(OC)c(F)c4)nnc23)n1,"inconclusive: 15.8 µM [inhibitor, single point]",–
Cc1c(C)n2c3c(=O)[nH]c(=O)n(C)c3nc2n1CCN1CCN(Cc2ccc(F)cc2)CC1,inactive,–
COc1cc(-c2cc3c(nc2OC)nc(CC2CC2)n3C)ccn1,active: 39.8 µM,–
CCc1ccccc1Nc1nn2c(=O)c3ccc(C(=O)Nc4ccc(OC)cc4)cc3nc2s1,"inconclusive: 15.8 µM [inhibitor, partial curve, poor fit]",–
CCc1cc(=O)n(CC(=O)Nc2ccccc2C)c(-n2nc(C)cc2C)n1,inactive,–
CN1C[C@@H](NC(=O)c2ccccc2)C[C@H]1c1nc(-c2ccccc2)no1,inactive,–
O=C(c1ccccn1)N1CCn2c(nnc2C2CCCNC2)C1 (centres undefined),"inconclusive: 39.8 µM [inhibitor, partial curve, poor fit]",–
COc1ccc(C2NC(=O)NC3=C2C(=O)N(Cc2ccccc2)C3)cc1OC (centres undefined),inactive,–
CC12CC3CC(C)(C1)CC(NC(=O)c1cccc4c(Br)cccc14)(C3)C2,inactive,–
CC(C)N(C(=O)COC(=O)c1cc2ccccc2[nH]1)C(C)C,inactive,–
Cc1ccc(S(=O)(=O)C(CC(=O)c2ccccc2)C(=O)c2ccc(Cl)cc2)cc1 (centres undefined),"inconclusive: 3.98 µM [inhibitor, full curve, poor fit]",–
Cn1c(=O)c2c(ncn2Cc2ccccc2F)n(C)c1=O,inactive,–
Cc1ccc(CN2CCSc3ccc(C(=O)Nc4ccc(F)cc4F)cc32)cc1,"inconclusive: 31.6 µM [inhibitor, partial curve, poor fit]",–
O=C(O)c1ccc(CNCC(O)c2ccccc2)cc1 (centres undefined),inactive,–
O=C1c2c(nc(CNCc3cnccn3)n2Cc2ccccc2)NCCN1Cc1cccc(Cl)c1,active: 25.1 µM,–

SMILES,Potency,"activity change, negative = inhibition"
COc1ccc(N2CCN(C(=O)c3cc4c(=O)n(Cc5ccccc5)ccc4nc3C)CC2)cc1,"inconclusive: 22.4 µM [inhibitor, partial curve, poor fit]",–
O=C(NCc1nnc2cc(-c3nc(C4CC4)no3)ccn12)c1ccc2[nH]ccc2c1,inactive,–
Cc1cc(C(=O)N2CC[C@@](C)(O)[C@@H](O)C2)c2cc(Cl)ccc2n1,inactive,–
Cc1c(Cl)cccc1-n1c(CCC(=O)O)ccc1-c1cccs1,"inconclusive: 25.1 µM [inhibitor, partial curve, poor fit]",–
CCC(C(=O)N1CCN(c2cc(Cl)ccc2C)CC1)n1nc(C)n2c(cc3occc32)c1=O (centres undefined),"inconclusive: 28.2 µM [inhibitor, single point]",–
CN(C)c1ccc(CN2CCCC3(CC(c4cccc(C(F)(F)F)c4)=NO3)C2)cc1 (centres undefined),"inconclusive: 28.2 µM [inhibitor, single point]",–
COc1ccccc1-c1cnc(Nc2cc(F)cc(N3CCOCC3)c2)c2c1CCO2,"inconclusive: 39.8 µM [inhibitor, partial curve, poor fit]",–
COc1ccc(Cl)cc1C(=O)NCc1nnc2ccc(-c3ccc(Cl)cc3)nn12,inactive,–
COc1ccc(-c2cc(N3CCCN(C(=O)C(C)c4ccccc4)CC3)n[nH]2)cc1 (centres undefined),"inconclusive: 15.8 µM [inhibitor, partial curve, poor fit]",–
O=C(O)c1ccc(C(=O)/C=C/c2cccs2)s1,"inconclusive: 28.2 µM [inhibitor, partial curve, poor fit]",–
CC(C)N1C[C@H](O)C[C@H]1c1nnc2n1CCN(C(=O)C1CCOCC1)CC2,inactive,–
O=C1c2ccc(-c3ccc4c(c3)C(=O)N(CCCO)C4=O)cc2C(=O)N1CCCO,"inconclusive: 1.78 µM [inhibitor, partial curve, poor fit]",–
C#CCN1CCCCC1C(=O)NCCc1ccccc1 (centres undefined),inactive,–
CCc1ccc(N2CC(c3noc(-c4ccc(OC)cc4OC)n3)CC2=O)cc1 (centres undefined),active: 31.6 µM,–
O=C(O)c1ccc(=O)oc1,inactive,–
Cc1cc(C)c(C(=O)COC(=O)c2ccc(-c3ccccc3)cc2)c(C)c1,inactive,–
CN(C)Cc1nnc(C2CC(NC(=O)c3ccc4scnc4c3)C2)n1C (centres undefined),"inconclusive: 10 µM [inhibitor, partial curve]",–
O=C(c1ccc(F)cc1)N1C[C@@H]2C[C@H](C1)c1c(NS(=O)(=O)c3cccc(F)c3)ccc(=O)n1C2,"inconclusive: 35.5 µM [inhibitor, single point]",–
CC1(C)CC(NC(=S)Nc2ccc(F)c(Cl)c2)CC(C)(C)N1,inactive,–
Cc1ccsc1CN(Cc1ccc(CN(C)S(C)(=O)=O)o1)CC(C)C,"inconclusive: 25.1 µM [inhibitor, partial curve]",–
CN1CCN(c2ccc(-c3nccc4c(=O)cc(N5CCOCC5)oc34)cn2)CC1,"inconclusive: 35.5 µM [inhibitor, partial curve, poor fit]",–
COC(=O)[C@@H]1Cc2c([nH]c3ccccc23)[C@@H]2C[C@@H](NCCNC(C)=O)C[C@@H](c3cccc(Cl)c3)N12,"inconclusive: 3.55 µM [inhibitor, single point]",–
Cc1ccc(-c2cc(Nc3cccc(C(=O)N(C)Cc4ccccc4)c3)ncn2)cc1,"inconclusive: 28.2 µM [inhibitor, partial curve, poor fit]",–

SMILES,Potency,"activity change, negative = inhibition"
Cc1cc2c(=O)c(C(=O)c3ccncc3)cn(CC(=O)Nc3cccc(C)c3C)c2cc1C,"inconclusive: 31.6 µM [inhibitor, single point]",–
Cc1oc(-c2ccc(C(=O)NCc3ccc(N(C)C)cc3)cc2)nc1COc1ccccc1,–,inconclusive: -45.1% [inhibitor] [at 11.5 µM]
COc1cc2oc(=O)c(CC(=O)NCCCN(C)C)c(C)c2cc1Cl,"inconclusive: 7.08 µM [inhibitor, full curve, poor fit]",–
CN(Cc1ccccc1)C1CCN(Cc2ccc(Cl)cc2)CC1,"inconclusive: 25.1 µM [inhibitor, partial curve, poor fit]",–
Cc1cc(=O)n(CC(=O)NCCC(C)C)c2c1c(C)nn2C,"inconclusive: 28.2 µM [inhibitor, single point]",–
Cn1ccc2c(C(=O)NCCC(N)=O)nc(-c3ccccc3C(F)(F)F)cc21,inactive,–
Cc1ccc2c(c1)c(=O)c(C(=O)c1ccncc1)cn2CC(=O)Nc1c(C)cccc1C,"inconclusive: 39.8 µM [inhibitor, single point]",–
C=CCOc1ccc(/C=C(\C(=O)c2ccc(OCC)cc2)c2nc3ccccc3s2)cc1,"inconclusive: 22.4 µM [inhibitor, single point]",–
COc1ccc2[nH]c(C(=O)NCc3ccco3)cc2c1,"inconclusive: 22.4 µM [inhibitor, partial curve, poor fit]",–
COc1ccc(N2CCN(C(CNC(=O)C(C)(C)C)c3ccco3)CC2)cc1 (centres undefined),inactive,–
CCc1ccccc1NC(=O)C(OC(=O)c1ccccc1)C(OC(=O)c1ccccc1)C(=O)O (centres undefined),inactive,–
COc1ccccc1-c1nc(C(=O)N2CCOCC2)n2ccncc12,active: 100 µM,–
COC(=O)CNC(=O)c1nc(-c2c(C)cccc2C)c2ccccn12,active: 28.2 µM,–
CCC1Oc2ccc(NC(=O)c3ccc(Cl)cc3)cc2CN(Cc2ccc3c(c2)OCO3)C1=O (centres undefined),"inconclusive: 28.2 µM [inhibitor, partial curve, poor fit]",–
O=C(Nc1ccccc1)c1nc2c(o1)CCN(Cc1cccc(Cl)c1)CC2,active: 28.2 µM,–
CCCOc1c(Cl)cc(C(=O)NC(C)(C)C)cc1OCC,inactive,–
N#Cc1cccc(NC(=O)Cn2ccn3nc4c(c3c2=O)CCCC4)c1,inactive,–
COc1ccc(S(=O)(=O)N2CCc3ccccc32)cc1C(=O)OCC(=O)Nc1ccccc1,inactive,–
CN1c2cc(C(=O)NCc3cccs3)ccc2C(=O)N2CCCCC21 (centres undefined),"inconclusive: 20 µM [inhibitor, partial curve, poor fit]",–
COc1cccc(CN2C[C@@H](COCC3CC3)[C@H](c3ccncc3)C2)n1,"inconclusive: 15.8 µM [inhibitor, partial curve]",–
N#Cc1nc(-c2ccccc2F)oc1NCC1CCCO1 (centres undefined),"inconclusive: 25.1 µM [inhibitor, partial curve, poor fit]",–
COc1ccc(C2(CNC(=O)C(=O)Nc3cccc(C(F)(F)F)c3)CCCC2)cc1OC,inactive,–
O=C(NCCc1ccc(Cl)cc1)c1ccc(CSCc2ccccc2Cl)o1,"inconclusive: 2.82 µM [inhibitor, partial curve, poor fit]",–

# — PubChem BioAssay AID1347165 (National Center for Advancing Translational Sciences (NCATS), 2019)
